Each structure is given as a SMILES string. “And” between values parts separate entries of the source, which are not always exact repeats. Equal values may be shown once.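 Tested at 5 concentrations; 48 h exposure; 96-well plates; endpoints linearly interpolated, else capped at highest concentration. Abbreviation: GI50, concentration required for 50% inhibition of growth. TGI: concentration producing complete growth inhibition.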

The test system of the test is NCI-H322M lung. In words: inhibition of tumour cell growth, NCI panel, 48 h.
`COc1ccc2c(-c3ccc(OCCN(C)C)cc3)c(Oc3ccc(Cl)cc3)c(=O)oc2c1` returned a TGI of 16.1 µM.

In turn, `CCNc1ncnc2c1nnn2CC` registered a TGI of more than 100 µM.

For `[N-]=[N+]=NC[C@H]1OCO[C@H](CN=[N+]=[N-])[C@H]2OCCOCCOc3ccccc3OCCOCCO[C@@H]21`, the TGI was more than 100 µM.

For `O=NN(CCCl)C(=O)NC1CCC(=O)NC1=O` (centres undefined), the TGI was more than 1250 µM.

Turning to `CCn1c2ccc(O)c(C(=O)OC)c2c2cc3ccccc3c(O)c21`, the TGI came to 42.7 µM.

In turn, `COC(=O)C#CCC1CCCC1C1SCCS1` (centres undefined) came in with a TGI of more than 100 µM.

As to `Cc1ccc(S(=O)(=O)c2ccc([N+](=O)[O-])o2)cc1`, the TGI came to 31 µM.

In the case of `C=CCCCOC1[C@H](OCc2ccccc2)C(OCc2ccccc2)C(OC)O[C@@H]1CNC(=O)c1cccc(I)c1` (some centres undefined), the GI50 is 7.43 µM and the TGI is more than 100 µM.

In the case of `CC(=O)c1ccc(N2CCN(C3=CC(=O)c4c(O)ccc(O)c4C3=O)CC2)cc1`, the TGI is more than 100 µM.

Take `COc1cc(C2CC(=O)Nc3c2cc(Br)c2ccccc32)cc(Br)c1OC` (centres undefined): the GI50 was 3.56 µM and the TGI was more than 100 µM.

For the compound `CCCCCn1c(=O)c2c(=O)[nH][nH]c2c2ccccc21`, the TGI was more than 100 µM.

For `Cc1ccc(Sc2oc(-c3ccc(C)cc3)nc2[P+](c2ccccc2)(c2ccccc2)c2ccccc2)cc1`, the GI50 is 0.385 µM and the TGI came to 1.51 µM.

For `Cc1cc(S(=O)(=O)Nc2nc3ccccc3n2-c2ccccc2)c(S)cc1Cl`, the TGI was more than 100 µM.

`COCCOCOC(C)(C)[C@H](CCOC(C)=O)O[Si](c1ccccc1)(c1ccccc1)C(C)(C)C` registered a TGI of 79.2 µM.

For the compound `Nc1n[nH]c(N)c1N=Nc1ccc(O)cc1`, the GI50 was 25 µM and the TGI was found to be 88.7 µM.

As to `CC(C)(C)c1cc(C(=O)/C=C/c2ccn[nH]2)cc(C(C)(C)C)c1O`, the TGI worked out at 31.1 µM.

Turning to `COc1ccc2c(c1)/C(=C\c1c[nH]c3ccc(OC)cc13)C(=O)N2`, the GI50 is 3.44 µM and the TGI was determined as 15.7 µM.

Regarding `O=C1CSC(c2ccccc2O)N1c1nnc(Cn2ccnc2)o1` (centres undefined), the GI50 was 4.38 µM and the TGI was 21.5 µM.

For the compound `N#CC(C#N)=C(N)/C(C#N)=C/c1ccc2[nH]ccc2c1`, the TGI is more than 100 µM.

For the compound `Cc1c(C#N)c2nnn(-c3ccccc3)c(=O)n2c1-c1ccccc1`, the TGI was more than 100 µM.

Consider `O=C(N/N=C/c1ccc(Cl)cc1)c1cc(I)cc(I)c1O`, for which the TGI was more than 100 µM.

`CC(=O)CC(C)(C)NC(=O)[C@@]1(O)CC[C@H]2[C@@H]3CCC4=CC(=O)CC[C@@H]4[C@H]3CC[C@@]21C` registered a TGI of more than 100 µM.

As to `Clc1ccccc1NN(Cc1ccncc1)c1ccccc1Cl`, the TGI turned out to be 28.6 µM.

Compound `O=C(O)COc1ccc(C(=O)/C(SS/C(C(=O)c2ccc(OCC(=O)O)c(Cl)c2Cl)=C2\C=C(c3ccc(Br)cc3)SS2)=C2/C=C(c3ccc(Br)cc3)SS2)c(Cl)c1Cl` had a TGI of more than 100 µM.

Compound `Cc1cc(O)ccc1C1(c2ccc(F)cc2)OC(=O)c2ccccc21` (centres undefined) displayed a TGI of 7.39 µM.

The compound `O=S1(=O)C(c2ccccc2)=C(O)c2ccccc21` registered a TGI of more than 100 µM.

In the case of `COc1cc(/C=C2\Cc3cc(OC)c(OC)cc3C2=O)cc(OC)c1`, the TGI was more than 100 µM.

`C=C1CC[C@@H]2[C@](C)(COC(C)=O)[C@H](OC(C)=O)CC[C@@]2(C)[C@@H]1CC(Nc1ccc(S(=O)(=O)Nc2nccs2)cc1)C1=CCOC1=O` (some centres undefined): the GI50 is 12 µM and the TGI turned out to be 24.9 µM.

With `CN(C)Cc1cc(C(=O)/C=C/c2cccc(Cl)c2)cc(CN(C)C)c1O`, the TGI worked out at 21.2 µM.

Turning to `CCN1C(=O)N(CC)C2C1NN=c1s/c(=C\c3ccc[nH]3)c(=O)n12` (centres undefined), the GI50 is 0.815 µM and the TGI is more than 100 µM.

For the compound `O=S(=O)(NC1=NCCN1C(=S)SN1CCn2c1nsc2=S)c1cccc(OC(F)(F)F)c1`, the GI50 is 15.8 µM and the TGI was found to be 35.3 µM.

With `O=[N+]([O-])c1ccc2c(Nc3ccccc3-c3ccccc3Nc3c4ccccc4nc4cc([N+](=O)[O-])ccc34)c3ccccc3nc2c1`, the TGI stood at 46.2 µM.

For `COc1cc2c(cc1-c1coc3cc(OCC=C(C)C)ccc3c1=O)OCO2`, the TGI is more than 100 µM.

In turn, `CC(C)C(C/C=C1/CC(CO)(COC(=O)C2CCCCC2)OC1=O)C(C)C` (centres undefined) displayed a TGI of 35.4 µM.

On to `ONC1=Nc2ccccc2OCc2cc(Br)c(Br)cc2COc2ccccc2N=C1NO`, for which the TGI was 30 µM.

`NC(=O)C12CC3CC(CC(Br)(C3)C1)C2` returned a TGI of more than 100 µM.

Take `CCSc1nc(N)c(C#N)c(-c2ccco2)c1C#N`: the GI50 is 74.3 µM and the TGI was more than 100 µM.

`Cn1nnc2c(C(N)=O)ncn2c1=O` showed a TGI of more than 100 µM.

As for `N=C(N)SCCCN`, the TGI is more than 74.9 µM.

As for `COC1(C)C(=O)N2C1N(C(=O)OCc1ccccc1)CC2(C)C` (centres undefined), the TGI was more than 100 µM.

`CCC(=O)NC(OCC1(CC)COC1)(C(F)(F)F)C(F)(F)F` yielded a TGI of more than 100 µM.

The compound `COC(=O)/C(C#N)=C1\CCc2ccccc21` gave a TGI of more than 100 µM.

Compound `CN(C)C(=O)C(F)(F)C(c1ccc(Br)cc1)C1C(=O)N(C)C(=O)N(C)C1=O` (centres undefined) came in with a TGI of more than 100 µM.

In turn, `C=CC(C)(C)c1cc([C@@H]2COc3cc(O)ccc3C2=O)c(O)c(O)c1OC` gave a TGI of more than 100 µM.

Consider `OCc1ccc(N2CCCC2)cc1Cl`, for which the GI50 was 66.2 µM and the TGI was more than 100 µM.

`COc1cccc(CC(C)=C(c2ccc(OCCCN(C)C)cc2)c2ccc(OCCCN(C)C)cc2)c1`: the GI50 is 0.775 µM and the TGI worked out at 2.43 µM.

Compound `COc1ccc2c(c1OC)C(=O)O[C@@H]2[C@H]1c2cc3c(cc2CCN1C)OCO3` displayed a TGI of more than 100 µM.

As to `C=CCn1c(=O)c2cnc(Nc3ccc(N4CCN(C)CC4)cc3)nc2n1-c1cccc(C(C)(C)O)n1`, the GI50 is 0.341 µM and 0.334 µM; the TGI is more than 31.5 µM.

For the compound `CC1=NN(C(=O)c2ccc(Cl)cc2)C(=O)/C1=C/c1ccc(Cl)cc1`, the TGI is more than 100 µM.

Compound `Nc1ncnc2c1nnn2C1C=C(CO)C(O)C1O` (centres undefined) showed a TGI of more than 100 µM.

`COc1cc(OC)c2c(O)c(S(=O)(=O)c3ccc(C)cc3)c(=O)oc2c1` registered a TGI of more than 100 µM.

For `COC1=CC(=O)c2c(O)c3c(c(O)c2C1=O)C[C@](C)(O)C[C@@H]3O`, the TGI came to 9.42 µM.

Compound `c1csc(-c2csc(-c3ccsc3)c2)c1` displayed a TGI of more than 100 µM.

`N#CC1(c2ccccc2)CCN(C2(c3ccccc3)CCCCC2)CC1` showed a TGI of more than 100 µM.

Compound `C/C=C/[C@H]1O[C@@](O)([C@@H](C)[C@H](O)[C@H](C)[C@H]2OC(=O)/C(OC)=C/C(C)=C/[C@@H](C)[C@@H](O)[C@@H](CC)[C@@H](O)[C@H](C)C/C(C)=C/C=C/[C@@H]2OC)C[C@H](OC2CC(O)C(OC(N)=O)C(C)O2)[C@@H]1C` (some centres undefined) showed a TGI of 21.5 µM.

In the case of `Cc1cc(C)c2c(=N)c3ccccc3n(CCCCCCO)c2n1`, the TGI was found to be 28.4 µM.

As to `NCCC(=O)NC(Cc1cnc[nH]1)C(=O)O` (centres undefined), the TGI was more than 100 µM.

`CNC(=S)N/N=C(\C)c1nc2ncccc2[nH]1` had a TGI of more than 100 µM.

Turning to `NC(=O)c1cccc(-c2cc(C(N)=O)ccc2Cl)c1`, the GI50 is 50.5 µM and the TGI is more than 100 µM.

In the case of `COc1cc(C(c2cccc3ccccc23)N2C(=O)CCC2C(=O)NCc2ccccc2)cc(OC)c1OC` (centres undefined), the TGI was more than 100 µM.

Regarding `CCOC(=O)C(NC(=O)CC)(Nc1ccc(S(=O)(=O)Nc2nc(C)cc(C)n2)cc1)C(F)(F)F` (centres undefined), the TGI was more than 100 µM.

On to `CC1=C(C(=O)Nc2ccc(F)c(Cl)c2)C(c2ccccc2O)NC(=O)N1` (centres undefined), for which the GI50 was 19.6 µM and the TGI was more than 100 µM.

On to `CC1(C)CCCCCCCCCC(C)(CCCCCCCCCCCCO)C1=O` (centres undefined), for which the TGI is 33.1 µM.

`Cn1c2c(c3ccccc31)CCN1C(=O)C3SC21C1C(=O)N(c2ccccc2)C(=O)C31` (centres undefined) registered a TGI of more than 100 µM.

Regarding `COc1cc(/C=C\c2ccncc2)cc(OC)c1OC`, the TGI is more than 100 µM.

In the case of `Oc1nc(N/N=C/c2ccccc2)[nH]c1/C=C1\C=Nc2ccccc21`, the TGI is more than 100 µM.

Turning to `COc1ccc(-c2ccc(/C=N/n3c(COc4ccccc4Cl)n[nH]c3=S)o2)c([N+](=O)[O-])c1`, the GI50 was 21.5 µM and the TGI was 56.8 µM.

The compound `CCN(CC)CCCC(C)Nc1c(Sc2cnc3cc(Cl)ccc3c2NC(C)CCCN(CC)CC)cnc2cc(Cl)ccc12` (centres undefined) displayed a TGI of 6.17 µM.

For `O=C(COc1ccc(Cl)cc1)N1CCN(C(=O)COc2ccc(Cl)cc2)c2ccccc21`, the TGI is more than 100 µM.

Regarding `Clc1nc(Nc2nc3ccccc3[nH]2)nc(Cl)c1Cc1ccccc1`, the TGI was more than 100 µM.

Take `N=C(N)c1ccc(-c2ccc(-c3ccc(Cl)cc3)s2)nc1`: the GI50 was 1.36 µM and the TGI turned out to be 2.64 µM.

Turning to `O=C1/C(=C/c2cccc(Br)c2)COc2ccc(O)c(O)c21`, the GI50 is 1.66 µM and the TGI came to 3.43 µM.

On to `COc1nc(OC)nc(-c2cccc(F)c2)n1`, for which the TGI is 35.7 µM.

For `COc1cc(/C=C/[N+](=O)[O-])cc(OC)c1OC`, the GI50 was 12.6 µM and the TGI stood at 26.6 µM.

Compound `COC/N=C(/N)NC#N` showed a TGI of more than 100 µM.

Consider `C/C(=C\Cc1cc(O)ccc1O)CCc1c(C)c(O)c(O)c(C=O)c1C`, for which the TGI is more than 100 µM.

Take `CCN(CC)CCCC(C)Nc1c(-c2ccccc2)cnc2cc(Cl)ccc12` (centres undefined): the GI50 is 11.3 µM and the TGI stood at 39.3 µM.

Compound `CSc1nc(C#N)c(N)n1C` displayed a TGI of more than 100 µM.

Regarding `CCN(C(=O)CN1CCN(c2cc3c(cc2F)c(=O)c(C(=O)O)cn3CC)CC1)c1nc(-c2ccccc2)cs1`, the GI50 was 0.352 µM and the TGI is more than 100 µM.

The compound `CC(=O)O[C@H]1CN(S(=O)(=O)c2ccc(C)cc2)C[C@@H]1C1CCCCC1` showed a TGI of more than 100 µM.

For the compound `CCOC(=O)c1c(N2CCOCC2)[nH]c(=O)c(C(c2cccs2)c2c(O)c(C(=O)OCC)c(N3CCOCC3)[nH]c2=O)c1O`, the TGI is more than 100 µM.

Take `COc1cccc2c1[C@H]1CO[C@H]3C4C[C@H](C(=O)O)C([C@@H](C2)N13)N4C` (some centres undefined): the GI50 is 0.894 µM and the TGI amounted to 4.33 µM.

With `N.N.N.N.N.O=S(=O)([O-])C(F)(F)F.O=S(=O)([O-])C(F)(F)F.[Os+8]`, the GI50 is 6.81 µM and the TGI was found to be 20.7 µM.

The compound `CC1=C(Cl)C[C@@H](/C(C)=C\Cl)O[C@@]1(O)C(Br)Br` had a TGI of more than 100 µM.

Compound `CC1C2CC(C/C2=N/O)C1(C)C` (centres undefined) came in with a TGI of more than 100 µM.

`C#C[C@H]1CCCCCC1O` (some centres undefined): the TGI is more than 100 µM.

The record behind these values is PubChem BioAssay (NCI).
